Results: PubChem BioAssay AID624296 (National Center for Advancing Translational Sciences (NCATS), 2012)
Hit rate of the full screen: of about 350,000 compounds, about 9,900 (2.8%) were called active. Inconclusive results, whose numbers are uncertain, are shown with a selection of clear calls. Calls come from the whole dose curve; as a rule, active = well fitted activation curve with a large enough effect; inconclusive = small, poorly fitted or top-dose-only effect; inactive = no such curve, though single readings can be large or run the other way. No potency is given beside an inconclusive call; the fits are too rough.

assay: A quantitative high throughput screen for small molecules that induce DNA re-replication in MCF 10a normal breast cells.; note: nearly all actives have a fitted effect of over 50% in size; for activity, positive = re-replication: % of control where 0% means no effect; conditions: MCF 10A DNA re-replication, Hoechst nuclear intensity, 48 h; activity, positive = re-replication: at 46.1 µM (top of the series)
Potency is the fitted concentration of half-maximal effect; tags give direction and shape of the fitted curve.

| SMILES | Potency | activity, positive = re-replication |
| --- | --- | --- |
| COCCNC(=S)N(CCc1c(C)[nH]c2ccc(F)cc12)Cc1ccc(C)cc1 | inconclusive [activator, single point] |  |
| CC(C)(C)c1ccc(S(=O)(=O)NCc2ccc(C(=O)NCc3ccccn3)cc2)cc1 | inconclusive [activator, single point] |  |
| Cc1ccc(C2CC2C(=O)NNC(=S)Nc2cccc(C)c2)cc1 (stereo not given) | inconclusive [activator, single point] |  |
| Cc1cc(C(F)(F)F)c(C#N)c(SCC(=O)Nc2nc3cc(Br)ccc3s2)n1 | active: 13 µM |  |
| Cc1cc(-c2ccccc2)nc(N/N=C/c2ccc(N(C)C)cc2)n1 | inconclusive [activator, partial curve] |  |
| CN(C)C(CNC(=O)c1ccc(S(=O)(=O)Nc2ccccc2F)cc1)c1ccco1 (stereo not given) |  | inactive: 12% |
| O=C(Oc1ccccc1C(=S)N1CCOCC1)c1ccc([N+](=O)[O-])cc1[N+](=O)[O-] | inconclusive [activator, partial curve, poor fit] |  |
| O=C(NCCc1nc2ccccc2[nH]1)/C(=C/c1ccc2c(c1)OCO2)NC(=O)c1ccc(Cl)cc1Cl | inconclusive [activator, single point] |  |
| COc1ccc(OC)c(NC(=O)C2CCN(S(=O)(=O)c3c(C)noc3C)CC2)c1 | inconclusive [activator, single point] |  |
| CC(C)N(C(=O)C[n+]1ccsc1N)c1ccccc1 | inconclusive [activator, full curve, poor fit] |  |
| COc1ccccc1CCNC(=O)CNC(=O)Cc1cccc2ccccc12 |  | inactive: -7.6% |
| CCCOC(=O)Cn1cnc2scc(-c3ccc(OC)cc3)c2c1=O | inconclusive [activator, single point] |  |
| COC(=O)CN1C(c2ccccc2O)Nc2ccc(Br)cc2C1c1ccccc1 (stereo not given) |  | inactive: -0.651% |
| CN=C(Nc1cc(C)nn1-c1ccccc1)c1ccccc1F | inconclusive [activator, partial curve, poor fit] |  |
| CCCOc1ccc(C(=O)NC2CCSc3ccccc32)cc1 (stereo not given) |  | inactive: 11% |
| CC(C)C[C@@H](CN)NC(=O)c1nc[nH]c1C(=O)N[C@@H](Cc1ccccc1)C(=O)CNC[C@H](C)NC(=O)c1nc[nH]c1C(=O)N[C@@H](CC(=O)O)C(=O)O | inconclusive [activator, full curve, poor fit] |  |
| Cc1cccn2c(=O)c3cc(C(=O)NC4CCCCC4)n(C)c3nc12 | inconclusive [activator, single point] |  |
| O=S(OCCN1CCCC1)C(c1ccccc1)c1ccccc1 (stereo not given) | inconclusive [activator, single point] |  |
| Cc1ccc(Cn2c(CCNc3nc(-c4ccc(Cl)c([N+](=O)[O-])c4)cs3)nc3cc(C(=O)NCCCO)ccc32)cc1 | inconclusive [activator, single point] |  |
| N#C/C(=C\c1coc2ccccc2c1=O)C(N)=S | inconclusive [activator, single point] |  |

| SMILES | Potency | activity, positive = re-replication |
| --- | --- | --- |
| COc1ccc(N(CC(=O)NCc2ccco2)S(=O)(=O)c2ccc(C)cc2)cc1 | inconclusive [activator, partial curve, poor fit] |  |
| CCOc1cc(/C=C2\NC(=O)NC2=O)ccc1OC(C)C(=O)O (stereo not given) |  | inactive: 5.67% |
| O=C(Oc1cccc(/C=N/Nc2nc(Nc3ccccc3)nc(N3CCOCC3)n2)c1)c1ccco1 | inconclusive [activator, single point] |  |
| CC(C)(C)c1ccc(C(=O)c2c[nH]c(C(=O)NCCCN3CCOCC3)c2)cc1 | inconclusive [activator, single point] |  |
| Cc1ncoc1C(=O)N1CCCC(C(=O)Nc2cccc(-c3ccc(F)cc3)c2)C1 (stereo not given) |  | inactive: 0.188% |
| CCOc1ccc(NS(=O)(=O)c2ccc(NC(=S)NC(=O)CC(C)C)cc2)cc1 | inconclusive [activator, partial curve, poor fit] |  |
| CC1(C)CC(=O)c2c(O)cc(OCC(=O)Nc3ccc(CCO)cc3)cc2O1 |  | inactive: 21.1% |
| O=C(NCC(=O)N1CCN(C(c2ccccc2)c2ccccc2)CC1)c1ccccc1F |  | inactive: 8.44% |
| CN1/C(=C\C=C2\N=C(c3ccc(F)cc3)OC2=O)C(C)(C)c2ccccc21 | inconclusive [activator, partial curve, poor fit] |  |
| Cn1[nH]cc(C=NC(N)=O)c1=O |  | inactive: -5.58% |
| COC(=O)Cc1nnc(SCC(=O)Nc2ccccc2)c2ccccc12 | inconclusive [activator, single point] |  |
| Cn1c(=O)c(N=O)c(N)n(Cc2ccccc2)c1=S | inconclusive [activator, single point] |  |
| Cc1cc(NC(=O)Nc2ccccc2[N+](=O)[O-])no1 | inconclusive [activator, single point] |  |
| Cc1ccc(C)c(NC(=O)c2sc(Cl)nc2-c2ccccc2)c1 | inconclusive [activator, single point] |  |
| COc1cc(NC(=O)C2=C(N3CCOCC3)/C(=C/c3ccc(Cl)cc3)CC2)cc(OC)c1OC | inconclusive [activator, single point] |  |
| COc1cc(/C=N/N=C2/SCC(=O)N2c2ccc(O)cc2)ccc1O | inconclusive [activator, single point] |  |
| Cc1ccc2oc(C(=O)N3CCC(N4CCSCC4)CC3)c(C)c2c1 | inconclusive [activator, partial curve, poor fit] |  |
| CCOC(=O)C(C)N1C(=O)S/C(=C/c2cc(C)n(-c3ccccn3)c2C)C1=O (stereo not given) | inconclusive [activator, single point] |  |
| CCN1CCN(Cc2ccc(NC(=O)c3ccc(C)c(NC(=O)c4cccc5[nH]ccc45)c3)cc2C(F)(F)F)CC1 | inconclusive [activator, partial curve, poor fit] |  |
| C#CCOc1nc2c(c(=O)n(C)c(=O)n2C)n1Cc1ccccc1 |  | inactive: 9.53% |
